Results taken from PubChem BioAssay AID1508624 (National Center for Advancing Translational Sciences (NCATS), 2021).
Among all 48,000 compounds or so, about 120 (0.25%) were called active. Inconclusive results (about 4%) are left out. Calls come from the whole dose curve; as a rule, active = well fitted activation curve with a large enough effect; inconclusive = small, poorly fitted or top-dose-only effect, or another doubt; inactive = no such curve, though single readings can be large or run the other way. The list shows a part of the results.

Assay: Primary qHTS for Identification of Small Molecule Activators of Huntingtin-Antisense Promoter Activity; note: nearly all actives have a fitted effect of over 55% in size
Conditions: HEK293 HTT-AS promoter firefly luciferase reporter, 24 h; series mostly up to 57.5 µM; activity change, positive = activation: at the top concentration
Outline: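 HEK293 Fluc reporter, 2,500 cells/well, 24 h pre-culture; cpds up to 57.5 uM final, 24 h 37 degrees C; Dual-Glo, 10 min RT; normalized vehicle = 0%, zero RLU = -100%.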

Activity change, positive = activation, inactive:
Cc1ccc(C)c(NC(=O)Nc2csc3c2CCCC3)c1 -17.6%, CC(C)NC(=O)C1CCN(C(=O)N2CC(C)Oc3ccccc32)CC1 (configuration not stated) -2.61%, COc1ccccc1[C@H](c1cccc2ccccc12)[C@@](C)(C#N)C(=O)N1CCC(c2cccc(C(F)(F)F)c2)CC1 -11.3%, COc1ccccc1NC(=O)Cn1c(=O)n(Cc2nc(-c3ccccc3)no2)c(=O)c2ccccc21 -16%, CCC1=C(c2ccc(C)cc2)S(=O)(=O)N=C1N1CCC(C(=O)N2CCCCC2)CC1 -13.5%, CCS(=O)(=O)NCCc1csc2nc(-c3ccc(C)cc3)nn12 -16%, O=C(COCc1cc(-c2cccs2)on1)Nc1cccc(O)c1 -0.981%, COc1ccc(NC(=O)Cn2cc(C(=O)c3cccs3)c3ccccc32)cc1 -17.7%, CCN(Cc1ccccc1)S(=O)(=O)c1ccc2[nH]c3c(c2c1)CCCCC3 -33.1%, CN(Cc1ccccc1)c1ccc(-c2nc(-c3cccnc3)no2)cc1[N+](=O)[O-] -6.76%, CCOC(=O)c1cccc(NC(=O)c2nn(-c3ccc(OC)cc3)c(=O)c3c2c2ccccc2n3C)c1 -1.88%, Cc1c(C(=O)OCCOc2ccccc2)[nH]c2c1C(=O)CC(c1ccccc1Cl)C2 (configuration not stated) -58.2%, CCC(C(=O)NCCc1cc(OC)ccc1OC)n1nc(C)c2sc3ccccc3c2c1=O (configuration not stated) -39.4%, Cc1cc(-c2nc3ncccc3o2)ccc1NC(=O)COc1cc(C)c(Cl)c(C)c1 -18.1%, CN(C)c1ccc(CNC(=O)c2cccn2-c2nnc(N3CCCCC3)s2)cc1 -18.9%, CCOC(=O)c1cnc2nc(NCc3ccc(OCC)cc3)[nH]n2c1=O -6.31%, Cc1ccc(C)c(NC(=O)CSc2nc(-c3ccccc3Cl)nc3c2Cc2c(CO)cnc(C)c2O3)c1 -16.3%, CCCCOc1ccc(C(=O)NCCc2csc(-c3ccc(OC)cc3)n2)cc1 -39.8%, O=C(NCc1ccc(F)cc1)C(=O)NCC(c1cccs1)S(=O)(=O)c1cccs1 (configuration not stated) -24.9%, COc1ccc(S(=O)(=O)c2cn(C)c3cc(N4CCOCC4)c(F)cc3c2=O)cc1 -12.4%, Cc1ccc(NS(=O)(=O)c2ccc3[nH]c4c(c3c2)CCCCC4)cc1 -32.4%, Cc1ccc(OCc2cc(=O)n3cc(C)sc3n2)c(C)c1 -4.99%, CC(=O)N1CCc2cc(S(=O)(=O)N3CCN(c4ccc(C)cc4)C(C)C3)ccc21 (configuration not stated) -50.2%, CCc1ccc(OCC(=O)Nc2ccc3oc(-c4ccc(OC)cc4)nc3c2)cc1 17.7%, O=C(COc1ccccc1)Nc1c(Cl)ccc2nsnc12 -22.6%, COC(=O)CC1Oc2ccc(Cl)cc2-n2cc(-c3ccc(F)cc3)nc21 (configuration not stated) -9.87%, CCCCCCCCCCCC(CC1OC(=O)C1CCCCCC)OC(=O)C(CC(C)C)NC=O (configuration not stated) -15.5%, Cc1ccc(C)c(N(C)S(=O)(=O)c2ccc3[nH]cc(C(=O)NC4CCCC4)c(=O)c3c2)c1 -43.7%, CCOc1ccc(S(=O)(=O)NCC(c2cccs2)S(=O)(=O)c2ccc(C)cc2)cc1 (configuration not stated) -9.56%, CCN1CCN(C(=O)c2c(C)nn(-c3ccc(F)cc3)c2-n2cccc2)CC1 12.4%, CC(=O)Oc1cccc(C)c1 0.423%, CC(C)Oc1ccc(CNC(=O)c2ccccc2NC(=O)c2nsc3ccccc23)cc1 -3.3%, CNS(=O)(=O)c1cn(CC(=O)N2CCN(c3cccc(Cl)c3)CC2)cc1S(=O)(=O)NC -11.2%, O=C(CCCCn1c(=O)c2ccccc2n(Cc2ccccc2F)c1=O)NCc1ccccc1Cl -6.51%, Cc1ccc(NC(=O)CSc2nc3ccc(NC(=O)CCc4ccccc4)cc3s2)c(C)c1 -6.83%, O=S(=O)(NCCc1nnc2ccc(SCc3c(F)cccc3Cl)nn12)c1ccccc1 -31.6%, COC(=O)c1ccc(CN(Cc2ccc(OC)c(OC)c2)S(=O)(=O)c2cc(C(=O)Nc3cccc(C)c3)ccc2F)cc1 -2.67%, CCCCC(C=O)NC(=O)C(CC(C)C)NC(=O)OCc1ccccc1 (configuration not stated) -21.3%, Cc1oc(-c2ccccc2F)nc1CSCC(=O)NCCc1ccccc1 -22.8%, CCC(Oc1ccccc1)C(=O)Nc1ccc(OCc2cc(=O)n3ccc(C)cc3n2)cc1 (configuration not stated) -6.98%, COc1ccccc1CNC(=O)c1ccc2c(c1)N(Cc1ccc(C)cc1)CCS2 -13.6%, CCc1ccccc1NC(=O)CN1C(=O)COc2ccc(S(=O)(=O)N3CCCCCC3)cc21 -8.98%, CCN(CC)S(=O)(=O)c1ccc2c(c1)N(CC(=O)NCC(C)c1ccccc1)C(=O)CO2 (configuration not stated) -9.33%, CCn1cc(C(=O)N2CCN(c3ccccc3OC)CC2)c(=O)c2cc(S(=O)(=O)N3CCC(C)CC3)ccc21 -9.92%, Cc1ccc(-n2ncc3c(N4CCCCCC4)ncnc32)cc1C -84.6%, CC1=C(c2ccc(C)c(C)c2)S(=O)(=O)N=C1N1CCC(C(=O)N2CCCCC2)CC1 -19.9%, CCOc1ccc(CNC(=O)CCc2cn(CC)c3ccccc23)cc1 -4.02%, CCCOc1ccccc1-c1nc2n[nH]nc2c(=O)[nH]1 -21.4%, CCc1ccc(NC(=O)C2CCN(S(=O)(=O)c3c(C)noc3/C=C\c3ccc(OC)cc3)CC2)cc1 -8.71%, COc1cc(C(=O)Nc2ccc(OCc3cc(=O)n4cccc(C)c4n3)cc2)cc(OC)c1OC -3.07%, O=C(NCCc1ccccc1)c1ccc(CSc2nc3ccncc3n2Cc2cccc(F)c2)cc1 -11.3%, CCN(CC)C(=O)c1sc2c(c1C)c(=O)n(CCc1ccccc1)c(=O)n2Cc1cccc(Cl)c1 -28.3%, COc1ccccc1CNc1ccc(-c2nc(-c3cccc(C)c3)no2)cc1[N+](=O)[O-] 1.85%, O=C(c1cnc(N2CCOCC2)c2ccccc12)N1CCN(c2ccccc2F)CC1 -19.1%, CN(C)c1ccc(CNC(=O)c2ccc3c(c2)N(C)C(=O)C2CCCCN32)cc1 (configuration not stated) -4.91%, CCOc1ccccc1N1CC(c2nc3ccccc3n2CCCCOc2cc(C)ccc2C)CC1=O (configuration not stated) -14.8%, COc1ccc(-n2nc(C(=O)NCc3ccc(F)cc3)c3c4ccccc4n(C)c3c2=O)cc1 -7.96%, COc1ccc(NC(=O)CN(C)S(=O)(=O)c2ccc3nc(C)sc3c2)cc1 -3.77%, CC(C)CCNC(=O)c1cc(Sc2ccc(F)cc2F)nc2ccccc12 -22.1%, COc1ccc(N2C(=O)CS(=O)(=O)C23C(=O)N(Cc2c(F)cccc2Cl)c2ccccc23)cc1 (configuration not stated) -23%, CCCCn1cc(S(=O)(=O)c2ccccc2)c(=O)c2cc(F)c(N3CCC(C)CC3)cc21 -9.07%, CCOC(=O)c1cnc2c(C)cc(C)cc2c1Nc1ccc(OCc2ccccc2)cc1 -6.87%, O=C(CN1CCN(CC(=O)Nc2ccccc2F)CC1)Nc1ccc(Cl)c(C(F)(F)F)c1 -7.55%, CCOC(=O)C1=C(C(F)(F)F)Nc2ncnn2C1c1cccc(OC)c1OC (configuration not stated) 6.91% [at 11.5 µM, percent change from vehicle, -100% = no light], CCOc1ccc(C(c2c(O)cc(C)n(CCOC)c2=O)N2CCN(c3ccc(F)cc3)CC2)cc1 (configuration not stated) 13.9%, Cc1cccc2cc(-c3nc(-c4cccs4)no3)c(=O)oc12 18%, Cc1sc2ncn(CC(=O)N3CCN(c4cccc(Cl)c4)CC3)c(=O)c2c1S(=O)(=O)N1CCC(C)CC1 4.41%, O=C(Nc1ccccc1Br)N[C@@H]1CCN(c2ccc(C(F)(F)F)cn2)C1 -7.53%, CCN(CC)C(=O)Cn1c(=O)n(CCCCCC(=O)NCc2ccc(C)cc2)c(=O)c2sccc21 1.64%, CCOc1ccc(-n2c(=O)c3c(C)c(C)sc3n(Cc3ccc(C(C)(C)C)cc3)c2=O)cc1 -9.42%, CC(=O)N1CCc2c(sc3c2c(=O)n(-c2cc(Cl)ccc2C)c(=O)n3C)C1 -29.1%, COC(=O)c1ccc(NC(=O)CN(C)S(=O)(=O)c2ccc3c(c2)CCCC(=O)N3)cc1 -33.4%, CCCCNC(=O)Cn1nc(N2CCN(c3ccccc3OC)CC2)ccc1=O -6.81%, CCn1cc(S(=O)(=O)c2cc(C)cc(C)c2)c(=O)c2cc(F)c(N3CCN(c4ccccc4)CC3)cc21 2.41%, COc1cccc(C(=O)N2CCc3cc(OC)c(OC)cc3C2COc2ccc3c(C)cc(=O)oc3c2)c1 (configuration not stated) 15.4%, CCCCCN=C(N)N/N=C/c1c[nH]c2ccc(OC)cc12 -41.8%, N#C/C(=C/c1ccccc1Cl)c1nc(-c2cc3ccccc3oc2=O)cs1 -13.4%, O=C(Cn1c(=O)n(CC2CCCO2)c(=O)c2ccccc21)Nc1ccc(F)cc1F (configuration not stated) -8.36%, COc1cc(C)ccc1OCCSc1nc2ccc(NC(=O)c3ccccc3F)cc2s1 -4.96%, COC(=O)c1cc(NC(=O)Cn2nc(-c3ccccc3)c3c(c2=O)CCCC3)cc(C(=O)OC)c1 -22.5%, CCc1ccc(-c2cc(C)no2)cc1S(=O)(=O)NCc1ccc(OC)cc1 -39.1%, Cc1ccc(NS(=O)(=O)c2ccc3[nH]c4c(c3c2)CCCCCC4)cc1C -33.4%, CCOc1ccccc1CNC(=O)CCCn1c(=O)c2cccn2c2ccc(F)cc21 -35%, Cc1ccc2nc(N)[nH]c(=O)c2c1Sc1ccncc1 -24.5%, CCOc1ccc(S(=O)(=O)Nc2ccc3c(c2)CCCN3S(=O)(=O)c2ccc(C)cc2)cc1 -18.9%, Cc1ccc(CNC(=O)c2cc(NS(=O)(=O)c3ccc(C)cc3)ccn2)cc1 -10.5%, CCOC(=O)c1cc(S(=O)(=O)N(C)c2ccccc2)[nH]n1 -20.4%, Cn1c(C(=O)NCc2ccccc2F)cc2cc(S(=O)(=O)N3CCCCC3)ccc21 -35.7%, COc1ccc(NC(=O)CN(C)S(=O)(=O)c2ccc3nc(C)sc3c2)cc1Cl -30.5%, COC(=O)c1sc2cccc(F)c2c1S(=O)(=O)NCc1ccccc1Cl -6.41%, Cc1cccc(Nc2nnc(-c3ccc(C)c(S(=O)(=O)N4CCOCC4)c3)c3ccccc23)c1 1.08% [at 11.5 µM, percent change from vehicle, -100% = no light], CCCOc1ccc(C(=O)Nc2ccc(NC(=O)c3ccc(Br)cc3)cc2)cc1 -2.33%
